Source: PubChem BioAssay AID624202 (National Center for Advancing Translational Sciences (NCATS), 2012)
Among all 380,000 compounds or so, about 4,000 (1.1%) were called active. Inconclusive means that the source gave no clear call. Such entries were picked first, then a sample of the others. The call rests on the fitted dose curve; in most records, active means well fitted activation curve with a large enough effect; inconclusive means small, poorly fitted or top-dose-only effect; inactive means no such curve, though single readings can be large or run the other way. A potency beside an inconclusive call is a rough fit, not a confirmed value.

Assay: qHTS Assay to Identify Small Molecule Activators of BRCA1 Expression; further: nearly all actives have a fitted effect of over 80% in size
Details: MCF7-BRCA1-FFLuc reporter, luminescence, 48 h; activation: at 46.1 µM (top of the series), scaled: vehicle 0%, 10 µM genistein 100% unless noted
Procedure, shortened: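 First, MCF7-BRCA1-FFLuc cells (2000/well) attach for 2 h; next, compounds are pin-added and incubated 48 h at 37 °C; finally, luciferase reagent is added and luminescence read after 15 min.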
Potency means the concentration at half of the fitted maximal effect; tags describe the fitted curve by direction and shape.

Row | Compound | Potency | activation
1 | O=C(NC1CC1)C1CCN(c2nc3ccccc3s2)CC1 | inconclusive: 12.6 µM [activator, partial curve, poor fit] | –
2 | CCCN1CCN(C(=O)c2cc3c(s2)-c2ccccc2OC3)CC1 | inconclusive: 7.08 µM [activator, partial curve, poor fit] | –
3 | CCC(C)N1CC(O)=C(c2nc3ccccc3[nH]2)C1=N (stereo not drawn) | inconclusive: 8.91 µM [activator, partial curve, poor fit] | –
4 | Cc1csc(NC(=O)C2CCCC2)n1 | inconclusive: 14.1 µM [activator, single point] | –
5 | COc1ccc2c(c1OC)C(=O)N(c1ccc(F)cc1)C2 | inconclusive: 2 µM [activator, full curve, poor fit] | –
6 | CCOC(=O)c1cccc(NC(=O)c2cnc3ccccc3n2)c1 | inconclusive: 17.8 µM [activator, partial curve, poor fit] | –
7 | NC1(C#Cc2ccc3c(=O)c4ccccc4sc3c2)CCCCC1 | inconclusive: 35.5 µM [activator, single point] | –
8 | O=C(NCCCOc1ccc([N+](=O)[O-])cc1Cl)OCc1ccccc1 | – | inactive: -22.3%
9 | O=C(CCCOc1ccccc1)N1CCN(c2ccccc2)CC1 | inconclusive: 1.78 µM [activator, full curve, poor fit] | –
10 | O=C(c1ccccc1)C(CCc1ccccn1)CCc1ccccn1 | inconclusive: 35.5 µM [activator, single point] | –
11 | O=S(=O)(c1ccc(Cl)s1)N1CCCc2cccc(O)c21 | inconclusive: 0.562 µM [activator, full curve, poor fit] | –
12 | CCC(=O)Nc1cccc(C(=O)OCC(=O)c2ccccc2Cl)c1 | active: 7.94 µM | –
13 | Cc1cc(NCc2ccccn2)n2ncc(-c3ccccc3)c2n1 | inconclusive: 1.26 µM [activator, partial curve, poor fit] | –
14 | C(/C=C/c1ccccc1)=N/N1CCN(c2ccccc2)CC1 | active: 7.94 µM | –
15 | Brc1ccc(C2=NC(Cc3ccccc3)CO2)cc1 (stereo not drawn) | inconclusive: 7.94 µM [activator, partial curve, poor fit] | –
16 | Cc1cccc(-c2nnc(-c3ccc4ccccc4c3)o2)c1 | – | inconclusive: 36.7% [activator]
17 | Cc1cccc(NC(=O)Cc2ccc(Br)cc2)n1 | active: 8.91 µM | –
18 | CN(CCN1CCOCC1)C(=O)c1cc(COc2ccc(F)cc2Cl)on1 | – | inactive: 18.9%
19 | COc1ccc(-c2nnc(SCC(=O)Nc3ccccc3OC)o2)cc1 | inconclusive: 3.55 µM [activator, partial curve, poor fit] | –
20 | c1ccc(-c2cn3c(n2)-c2ccccc2C3)cc1 | – | inactive: -39.8%
21 | O=C(Nc1ccc(Cl)cc1)c1ccco1 | inconclusive: 11.2 µM [activator, partial curve, poor fit] | –
22 | CCCc1cc(C(=O)Nc2cccc(C(C)=O)c2)no1 | inconclusive: 17.8 µM [activator, partial curve, poor fit] | –
23 | Nc1nc(N)c2[nH]c(-c3ccccc3)nc2n1 | inconclusive: 15.8 µM [activator, single point] | –
24 | CCc1ccc(/C=N/N2CCN(c3ccccn3)CC2)cc1 | active: 12.6 µM | –
25 | CC(C)c1ccc(NC(=S)NC2CC3C=CC2C3)cc1 (stereo not drawn) | active: 4.47 µM | –

Row | Compound | Potency | activation
26 | COc1ccc(C(O)c2nc(-c3ccoc3)cs2)cc1 (stereo not drawn) | – | inactive: -7.8%
27 | CCOC(=O)C1CCN(C(=O)c2ccc(OCC(=O)Nc3cccc(C(F)(F)F)c3)c(OC)c2)CC1 | – | inactive: -40.8%
28 | CCOC(=O)c1c(C)[nH]c(C(=O)OCCOc2ccc(Cl)cc2)c1C | inconclusive: 14.1 µM [activator, single point] | –
29 | Nc1ccc2c(c1)C(=O)c1ccccc1C2=O | inconclusive: 11.2 µM [activator, partial curve, poor fit] | –
30 | O=C(COC(=O)c1cccc(S(=O)(=O)N2CCOCC2)c1)Nc1nc(-c2ccccc2Cl)cs1 | inconclusive: 31.6 µM [activator, single point] | –
31 | Cc1ccc(/C=C2\CCC(C3CCCC3)C2=O)cc1 (stereo not drawn) | active: 12.6 µM | –
32 | Nc1cc(-c2cccc(Br)c2)nn1Cc1ccccc1 | – | inactive: 0.569%
33 | CCc1cc(Cn2nc(-c3ccccc3)cc2C(=O)NCc2ccccc2OC)on1 | – | inactive: 0%
34 | COc1ccc2c(=O)c(-c3ccc(OC)c(OC)c3)coc2c1 | active: 11.2 µM | –
35 | C=CCNc1ncnc2c1cnn2-c1cccc(C)c1 | active: 2.24 µM | –
36 | CCn1c(CCCOc2ccc(Cl)cc2Cl)nnc1SCC(=O)Nc1cccc(F)c1 | – | inactive: -2.4%
37 | c1coc(-c2cc3nc(NCc4ccc5c(c4)OCO5)ccn3n2)c1 | inconclusive: 7.08 µM [activator, partial curve, poor fit] | –
38 | Cc1c(CCC(=O)O)c(=O)oc2cc3occ(-c4ccc(F)cc4)c3cc12 | – | inactive: 0%
39 | CC1CC=C2C(C#N)=C(N)C(C#N)(C#N)C(c3cccs3)C2C1 (stereo not drawn) | – | inactive: -29%
40 | Cc1cccc(NC(=O)Oc2ccc(Cl)c3cccnc23)c1 | – | inactive: -41.8%
41 | Cc1ccsc1C(=O)Nc1nccs1 | inconclusive: 15.8 µM [activator, partial curve, poor fit] | –
42 | CN(C)c1ccc(/C=C2\CCCCC2=O)cc1 | inconclusive: 1.41 µM [activator, full curve, poor fit] | –
43 | Cc1ccc(-n2nnc(-c3cccnc3)n2)cc1 | inconclusive: 12.6 µM [activator, partial curve, poor fit] | –
44 | Cc1ccc(C)n1-n1cnc2sc(-c3ccccc3)cc2c1=O | – | inactive: -0.88%
45 | Cc1ccc(C(=O)Nc2ccc(CN3CCS(=O)(=O)CC3)cc2)cc1C | inconclusive: 15.8 µM [activator, partial curve, poor fit] | –
46 | CN(C)c1ccc(/C=C2\C=Cc3ccccc32)c(Cl)c1 | inconclusive: 2.51 µM [activator, partial curve, poor fit] | –
47 | Cc1ccc(C(=O)Nc2ccc3c(c2)CCC3)o1 | inconclusive: 2.82 µM [activator, full curve, poor fit] | –
48 | COc1ccc(C(=O)C(=NN)c2ccccc2)cc1 | inconclusive: 15.8 µM [activator, partial curve, poor fit] | –
49 | COc1cc(-c2nc(-c3ccccc3)c(-c3cc([N+](=O)[O-])ccc3C)[nH]2)cc(OC)c1OC | – | inactive: -76%
50 | O=C(N=C1c2ccccc2CN1c1cccc(Cl)c1)c1cccnc1 | inconclusive: 3.55 µM [activator, partial curve, poor fit] | –

Row | Compound | Potency | activation
51 | COc1cccc(/C=C2\CCc3ccccc3C2=O)c1 | active: 12.6 µM | –
52 | COc1ccccc1NS(=O)(=O)c1ccc2nc(CCl)[nH]c2c1 | – | inactive: -16.2%
53 | O=C(COc1ccc(F)cc1)N1CCC(c2ccccc2)C1 (stereo not drawn) | inconclusive: 6.31 µM [activator, full curve, poor fit] | –
54 | Cn1ccs/c1=N\C(=O)Nc1ccccc1 | inconclusive: 1 µM [activator, full curve, poor fit] | –
55 | CC(C)C[C@@H]1CN=C(N)N1C[C@@H]1CCCN1C[C@@H](C(C)C)N1C[C@@H](Cc2ccccc2)N(CCc2ccc(Cl)c(Cl)c2)C1=N | – | inactive: 15.6%
56 | O=C1C=C(c2ccc(C(=O)O)cc2)C[C@@H](c2ccc(F)cc2)C1 | inconclusive: 17.8 µM [activator, partial curve, poor fit] | –
57 | O=C(CCN1C(=O)S/C(=C\c2cccs2)C1=O)NC1=NCCS1 | – | inactive: 1.88%
58 | c1ccc(C2CCCN(Cc3nc(CC4CC4)no3)CC2)cc1 (stereo not drawn) | inconclusive: 35.5 µM [activator, single point] | –
59 | CC(C)Nc1nnc(SCC(=O)Nc2ccc3c(c2)C(=O)c2ccccc2C3=O)s1 | inconclusive: 1.26 µM [activator, full curve, poor fit] | –
60 | COc1ccc(OCc2cc(C(=O)NCC3CCCCO3)no2)c(Cl)c1 (stereo not drawn) | active: 12.6 µM | –
61 | O=C(CCC(=O)N1CCN(c2ccccn2)CC1)c1cccs1 | inconclusive: 8.91 µM [activator, partial curve, poor fit] | –
62 | CC(=O)Nc1ccc(OC/C=C(\C)Cl)cc1 | inconclusive: 35.5 µM [activator, single point] | –
63 | CCCc1nc(-c2ccc(-c3ccc(F)cc3)cc2)no1 | active: 3.98 µM | –
64 | CC(=O)c1ccc(OCc2cc(C(=O)NC(C)c3cnn(C)c3)no2)cc1 (stereo not drawn) | inconclusive: 12.6 µM [activator, partial curve, poor fit] | –
65 | Cc1ccc2c(c1)COc1c3ccc(C(=O)N[C@@H](C)CO)cc3nn1-2 | inconclusive: 1.58 µM [activator, partial curve, poor fit] | –
66 | COc1ccc(Oc2cnc3ccccc3n2)cc1 | active: 11.2 µM | –
67 | COc1ccc(C2CC(c3cccs3)=NN2S(C)(=O)=O)cc1 (stereo not drawn) | inconclusive: 17.8 µM [activator, single point] | –
68 | CCOC(=O)c1c(C)[nH]c(C)c1S(=O)(=O)N(C)CC(=O)Nc1ccc(C)c(F)c1 | – | inactive: -8.56%
69 | CC(=O)Nc1cccc(C(=O)N/N=C/c2ccccc2F)c1 | inconclusive: 0.631 µM [activator, full curve, poor fit] | –
70 | CCOc1ccc(CNC(=O)Nc2ccccc2)cc1 | inconclusive: 12.6 µM [activator, partial curve, poor fit] | –
71 | Cn1cc(-c2nc3ccccc3[nH]2)c2ccccc21 | active: 11.2 µM | –
72 | Brc1c(CSc2nc3ccccc3o2)nc2ncccn12 | inconclusive: 3.98 µM [activator, partial curve, poor fit] | –
73 | CCn1c(C)nc2cc(C(=O)OC(C(F)(F)C(F)F)C(F)(F)C(F)F)ccc21 | inconclusive: 35.5 µM [activator, single point] | –
